Assay results reported in PubChem BioAssay AID1347165 (National Center for Advancing Translational Sciences (NCATS), 2019).
Among all 220,000 compounds or so, about 5,700 (2.6%) were called active. Inconclusive means that the source gave no clear call. Such entries were picked first, then a sample of the others. The call rests on the fitted dose curve; in most records, active means well fitted inhibition curve with a large enough effect; inconclusive means small, poorly fitted or top-dose-only effect; inactive means no such curve, though single readings can be large or run the other way. Where the call is inconclusive, the potency comes from a doubtful curve fit.

The molecules below were run against Lysine-specific demethylase 5B (Homo sapiens) (UniProt Q9UGL1) (assay: Primary screen for KDM5B Histone Demethylases FDH-coupled qHTS). Settings: FDH-coupled NADH fluorescence (FDH is formaldehyde dehydrogenase); series mostly up to 57.7 µM.
In short: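 qHTS format, multiple compound concentrations. Buffer 50 mM HEPES pH 7.5/0.01% Tween-20; 200 nM KDM5BΔAP final; 10 min compound preincubation; substrate-mix levels 12.5 µM peptide, 25 µM α-KG, 0.25 mM NAD⁺; 30 min RT; ΔRFU.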
Further: nearly all actives have a fitted effect of over 70% in size.
Potency means the concentration at half of the fitted maximal effect; tags describe the fitted curve by direction and shape.

Chain of UniProt Q9UGL1 (Q9UGL1 whole entry, looked up): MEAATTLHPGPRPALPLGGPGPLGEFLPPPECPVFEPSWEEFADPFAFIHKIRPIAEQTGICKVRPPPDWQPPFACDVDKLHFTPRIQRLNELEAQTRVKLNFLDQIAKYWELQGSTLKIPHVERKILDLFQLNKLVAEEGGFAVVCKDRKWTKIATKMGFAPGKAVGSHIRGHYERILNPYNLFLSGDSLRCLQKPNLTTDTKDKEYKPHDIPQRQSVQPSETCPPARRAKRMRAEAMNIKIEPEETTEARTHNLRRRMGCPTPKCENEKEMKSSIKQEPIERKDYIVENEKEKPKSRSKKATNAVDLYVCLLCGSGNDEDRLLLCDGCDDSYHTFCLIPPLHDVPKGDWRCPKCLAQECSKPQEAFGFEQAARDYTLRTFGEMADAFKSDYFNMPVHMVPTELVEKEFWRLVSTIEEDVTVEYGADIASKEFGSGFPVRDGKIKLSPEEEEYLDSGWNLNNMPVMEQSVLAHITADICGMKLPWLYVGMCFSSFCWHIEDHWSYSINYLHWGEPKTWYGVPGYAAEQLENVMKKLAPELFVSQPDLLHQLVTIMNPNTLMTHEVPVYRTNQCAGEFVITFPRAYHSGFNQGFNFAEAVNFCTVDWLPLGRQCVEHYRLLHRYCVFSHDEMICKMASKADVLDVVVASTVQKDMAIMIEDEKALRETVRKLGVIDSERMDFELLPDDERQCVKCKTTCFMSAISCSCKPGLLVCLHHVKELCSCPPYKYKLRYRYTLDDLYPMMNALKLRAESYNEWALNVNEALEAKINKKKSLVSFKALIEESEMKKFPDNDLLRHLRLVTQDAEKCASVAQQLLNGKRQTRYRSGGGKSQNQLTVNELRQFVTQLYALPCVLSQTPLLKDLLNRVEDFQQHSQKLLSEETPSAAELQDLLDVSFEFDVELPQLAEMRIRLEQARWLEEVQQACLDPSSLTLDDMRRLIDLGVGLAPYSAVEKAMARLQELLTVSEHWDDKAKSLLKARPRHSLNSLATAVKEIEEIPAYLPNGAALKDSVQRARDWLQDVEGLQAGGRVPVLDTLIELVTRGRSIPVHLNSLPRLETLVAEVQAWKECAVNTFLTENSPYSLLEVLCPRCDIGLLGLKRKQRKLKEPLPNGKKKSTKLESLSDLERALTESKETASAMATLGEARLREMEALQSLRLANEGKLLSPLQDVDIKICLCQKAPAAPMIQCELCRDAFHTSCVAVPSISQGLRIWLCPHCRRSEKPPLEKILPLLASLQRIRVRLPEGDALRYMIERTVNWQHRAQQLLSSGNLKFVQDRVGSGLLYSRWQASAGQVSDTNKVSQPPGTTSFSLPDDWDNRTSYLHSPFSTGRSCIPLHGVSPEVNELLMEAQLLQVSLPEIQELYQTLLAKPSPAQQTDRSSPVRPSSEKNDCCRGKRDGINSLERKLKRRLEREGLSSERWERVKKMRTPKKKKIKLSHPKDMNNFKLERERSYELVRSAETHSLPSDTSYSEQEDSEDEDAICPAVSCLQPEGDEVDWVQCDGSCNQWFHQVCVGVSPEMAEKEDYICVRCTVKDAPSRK

Compound | Potency
CCC(Sc1ncc(S(=O)(=O)c2ccc(C)cc2)c(=O)[nH]1)C(=O)Nc1cc(C)ccc1C (configuration not stated) | inconclusive: 2.82 µM [inhibitor, partial curve, poor fit]
COc1cc(-c2cnc3n[nH]c(-c4ccccc4)c3n2)ccn1 | active: 8.91 µM
CCCC(=O)N1CCc2cc(OC)c(OC)cc2C1COc1ccc2c(C)cc(=O)oc2c1 (configuration not stated) | inconclusive: 44.7 µM [inhibitor, single point]
COc1ccc(CNc2nc(-c3ccc(OC)cc3)cc(C(F)(F)F)n2)cc1 | inconclusive: 31.6 µM [inhibitor, partial curve, poor fit]
NC(=O)COC[C@@H]1CN(CC2CCCCC2)C[C@H]1c1ccncc1 | inconclusive: 14.1 µM [inhibitor, partial curve, poor fit]
CCCSc1ncc(Cl)c(C(=O)Nc2ccc(S(=O)(=O)N3CCC(C)CC3)cc2)n1 | inactive
O=C(NCCc1ccccc1)c1ccc(Cl)c(S(=O)(=O)N2CCOCC2)c1 | inactive
COc1ccc(OCCCC(=O)Oc2ccc3oc4ccccc4c3c2)cc1 | inactive
COc1ccc(-c2cc(C(=O)NCCC(=O)N3CCOCC3)c3ccccc3n2)cc1OC | inactive
Cc1cccn2cc(COc3ccccc3C(=O)O)nc12 | inconclusive: 11.2 µM [inhibitor, partial curve, poor fit]
O=C(c1cc2ccccc2[nH]1)N1CCC2(CCCCO2)CC1 | inactive
COc1ccc(-c2nc(CC(=O)NC3CCN(Cc4ccccc4)CC3)cs2)cc1OC | inconclusive: 8.91 µM [inhibitor, full curve, poor fit]
COc1cc(/C=C(/C#N)C(=O)O)cc(Cl)c1OC(C)C | inactive
O=[N+]([O-])c1cccc(-c2noc([C@@H]3Cc4nc[nH]c4CN3CC3CCCCC3)n2)c1 | inconclusive: 56.2 µM [inhibitor, single point]
Cc1ccccc1NC(=O)c1cnc2c(c1)N(Cc1ccccc1)CCC2 | active: 39.8 µM
Cc1ccccc1Cc1c(C)nc2c(C(=O)NCCc3noc(-c4ccncc4)n3)cnn2c1C | inconclusive: 28.2 µM [inhibitor, partial curve, poor fit]
Cc1ccccc1NC(=O)C1CC(=O)N(c2n[nH]c3cc(Br)ccc23)C1 (configuration not stated) | inconclusive: 28.2 µM [inhibitor, single point]
CCCCOc1ccc(OCCN)cc1 | inactive
O=C(COc1ccc(Cl)cc1)NCC(c1ccco1)S(=O)(=O)c1ccccc1 (configuration not stated) | inconclusive: 8.91 µM [inhibitor, partial curve, poor fit]
Cc1ccc2nc(C)cc(C(=O)NC3CCC(O)CC3)c2c1 (configuration not stated) | inconclusive: 25.1 µM [inhibitor, partial curve, poor fit]
Cc1ccn2c(Nc3ccccc3C)c(-c3ccc(N4CCOCC4)cc3)nc2c1 | inconclusive: 28.2 µM [inhibitor, partial curve, poor fit]

Compound | Potency
O=C(Cc1ccccc1)N1CCC(O)(c2csc(CN3CCOCC3)n2)CC1 | inactive
COc1ccc(-c2ccccc2)cc1N1C(=O)[C@@H]2C[C@H]1CN2C(=O)C(C)(C)N | inconclusive: 25.1 µM [inhibitor, partial curve, poor fit]
CN(C)CCNC(=O)c1ccnc(-c2nnc3ccc(N(C)c4ccccc4)nn23)c1 | inconclusive: 35.5 µM [inhibitor, single point]
Cc1ccc(S(=O)(=O)Nc2ccc(C)n(CC(=O)O)c2=O)cc1 | inconclusive: 5.62 µM [inhibitor, partial curve]
OCCc1cnccn1 | inactive
Cc1ccc(C2=CC(c3ccccc3C)n3c(nc4ccccc43)N2)cc1 (configuration not stated) | inconclusive: 25.1 µM [inhibitor, partial curve, poor fit]
O=C(O)c1ccc(N=Cc2c(O)ccc3oc4c(c23)CCCC4)cc1 | inconclusive: 39.8 µM [inhibitor, single point]
COCCNC(=O)CCCN1C(=O)COc2ccc(C(=O)COc3ccc(C(C)(C)C)cc3)cc21 | inconclusive: 31.6 µM [inhibitor, partial curve, poor fit]
CCn1nc(C)c2c(-c3ccccc3)cc(=O)n(C(C)C(=O)Nc3cccc(F)c3)c21 (configuration not stated) | inconclusive: 31.6 µM [inhibitor, partial curve, poor fit]
CCOc1ccc(NC(=O)CSc2oc(-c3cccs3)nc2S(=O)(=O)c2ccc(C)cc2)cc1 | inconclusive: 31.6 µM [inhibitor, single point]
CCn1ccc2sc(C)c(C(=O)N3CCC(Cc4ccccc4)CC3)c2c1=O | inconclusive: 12.6 µM [inhibitor, partial curve]
COC(=O)CNC(=O)c1cc(-c2ccc(Cl)cc2Cl)c2cnn(C)c2n1 | inconclusive: 56.2 µM [inhibitor, partial curve, poor fit]
COc1ccc(-c2nc3ccccc3c(C(=O)O)c2C)cc1 | inconclusive: 22.4 µM [inhibitor, partial curve, poor fit]
Cn1c(=O)c2c(nc(SCC(=O)O)n2Cc2cccc(Cl)c2)n(C)c1=O | inactive
COc1ccc(CC(=O)Nc2nonc2-c2ccc(Br)cc2)cc1 | inactive
COc1ccc(OC2CCN(C(=O)C3CC3)CC2)c(C(=O)NCCCN2CCOCC2)c1 | inconclusive: 31.6 µM [inhibitor, partial curve, poor fit]
Cc1noc(-c2ccc(N3CCN(C/C=C/c4ccccc4)CC3)nc2)n1 | inconclusive: 28.2 µM [inhibitor, single point]
COc1ccc(-c2nc3cc(C)ccc3cc2CN2CCN(C(C)=O)CC2)cc1 | inactive
Cc1ccc2nc(-c3ccsc3)c(Nc3ccc(C(C)C)cc3)n2c1 | inactive
CC1(C)SC2c3ccccc3C(=O)N2[C@@H]1C(=O)NCc1ccc(Cl)cc1 (some centres not stated) | inactive
COCCNC(=O)CCCn1c(SCC(=O)c2ccc(F)cc2)nc2c(sc3ccccc32)c1=O | inconclusive: 7.94 µM [inhibitor, partial curve, poor fit]
